# Among all 220,000 compounds or so, about 16,000 (7.3%) were called active. The shares of active, inactive and inconclusive entries below differ from those in the screen. Calls follow the shape of the dose curve; as a rule, active = well fitted inhibition curve with a large enough effect (not every such curve was filed as active); inconclusive = small, poorly fitted or top-dose-only effect, or another doubt; inactive = no such curve, though single readings can be large or run the other way. Potencies of inconclusive entries are left out as doubtful fits.
# Molecular target: Aldehyde dehydrogenase 1A1 (Homo sapiens) (UniProt P00352)
# Sequence of UniProt P00352 (P00352 whole entry, looked up): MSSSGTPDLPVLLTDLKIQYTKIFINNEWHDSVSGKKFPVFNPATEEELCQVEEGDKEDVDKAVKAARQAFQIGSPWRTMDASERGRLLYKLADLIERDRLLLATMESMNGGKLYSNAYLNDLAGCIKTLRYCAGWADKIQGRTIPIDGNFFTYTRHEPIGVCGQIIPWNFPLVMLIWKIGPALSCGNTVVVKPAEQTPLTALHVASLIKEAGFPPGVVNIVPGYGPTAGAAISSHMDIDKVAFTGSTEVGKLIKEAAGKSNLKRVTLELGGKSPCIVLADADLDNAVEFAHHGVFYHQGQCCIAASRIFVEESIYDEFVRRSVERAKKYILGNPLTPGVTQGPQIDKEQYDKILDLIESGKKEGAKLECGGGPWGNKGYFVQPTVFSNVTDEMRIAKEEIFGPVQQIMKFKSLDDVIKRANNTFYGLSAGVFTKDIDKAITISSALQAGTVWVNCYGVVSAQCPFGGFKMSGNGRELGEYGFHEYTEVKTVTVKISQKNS
# Assay: qHTS Assay for Inhibitors of Aldehyde Dehydrogenase 1 (ALDH1A1)
# Conditions: Purified ALDH1A1, NADH fluorescence, propionaldehyde substrate; series mostly up to 75.3 µM
# Potency is read from the fitted curve at half-maximal effect; tags tell the direction and shape of the fitted curve.
row,Compound,Potency
1,O=C1NN(c2ccc(F)c(Cl)c2)C(=O)/C1=C\c1cccc(OC(=O)c2cccs2)c1,"inconclusive [inhibitor, single point]"
